How the values were obtained:
Type in all cases: in vivo
[1] = system: Blumeria graminis f sp. hordei; test: Test Example D: Powdery mildew on barley; settings: Powdery mildew on barley
Excerpt: [Test Example D] Powdery Mildew on Barley
After the sprayed dilutions were dried, conidia of Blumeria graminis f sp. hordei were inoculated to the plants by shaking off.

Puccinia recondita = test: Test Example E: Brown rust on wheat; settings: Brown rust on wheat
Excerpt: [Test Example E] Brown Rust on Wheat

Alternaia brassicicola = test: Test Example C: Alternaria sooty spot on cabbage; settings: Alternaria sooty spot on cabbage
Excerpt: [Test Example C] Alternaria Sooty Spot on Cabbage
Seeds of a test plant (cabbage variety: Shikidori) were planted followed by cultivating until the cotyledons extended.

Botrytis cinerea = test: Test Example B: Gray mold on tomato; settings: Gray mold on tomato
Excerpt: [Test Example B] Gray Mold on Tomato
Seeds of a test plant (tomato variety: Oogata Fukuju) were planted followed by cultivating until three to five first leaves (true leaves) appeared.

Compound	Test D control value [1]	Test E control value (Puccinia recondita)	Test C control value (Alternaia brassicicola)	Test B control value (Botrytis cinerea)
CCN1C(=O)CCC(c2ccc(F)cc2)=C1c1ncc(Cl)cc1Cl [Compound 24]	H (H shows more than 50% of control values)	H (H shows more than 50% of control values)	H (H shows more than 50% of control values)	H (H shows more than 50% of control values)
COc1cc(OC)c(Cl)c(-c2ccc(=O)n(C)c2-c2c(F)cccc2F)c1 [Compound 30]	H (H shows more than 50% of control values)	H (H shows more than 50% of control values)	H (H shows more than 50% of control values)	H (H shows more than 50% of control values)
CCn1c(-c2c(F)cccc2F)c(-c2ccc(F)cc2Cl)cc(Br)c1=O [Compound 63]	H (H shows more than 50% of control values)	H (H shows more than 50% of control values)	H (H shows more than 50% of control values)	H (H shows more than 50% of control values)
CN1C(=O)CCC(c2ccc(F)cc2)=C1c1c(F)cccc1F [Compound 17]	H (H shows more than 50% of control values)	H (H shows more than 50% of control values)	L (L shows 50% or less of control values)	H (H shows more than 50% of control values)
CN1C(=O)CCC(c2c(F)cccc2F)=C1c1ncc(Cl)cc1Cl [Compound 3]	H (H shows more than 50% of control values)	H (H shows more than 50% of control values)	L (L shows 50% or less of control values)	L (L shows 50% or less of control values)
CCn1c(-c2c(F)cccc2F)c(-c2ccccc2)ccc1=O [Compound 46]	H (H shows more than 50% of control values)	H (H shows more than 50% of control values)	H (H shows more than 50% of control values)	H (H shows more than 50% of control values)
CCN1C(=O)CCC(c2ccc(F)cc2Cl)=C1c1c(F)cccc1F [Compound 58]	H (H shows more than 50% of control values)	H (H shows more than 50% of control values)	H (H shows more than 50% of control values)	H (H shows more than 50% of control values)
CCn1c(-c2c(F)cc(F)cc2F)c(-c2cc(OC)cc(OC)c2Br)ccc1=O [Compound 132]	H (H shows more than 50% of control values)	H (H shows more than 50% of control values)	H (H shows more than 50% of control values)	H (H shows more than 50% of control values)
CN1C(=O)CCC(c2ccc(F)cc2)=C1c1ncc(Cl)cc1Cl [Compound 21]	H (H shows more than 50% of control values)	H (H shows more than 50% of control values)	H (H shows more than 50% of control values)	H (H shows more than 50% of control values)
CCn1c(-c2c(F)cccc2F)c(-c2ccccc2I)ccc1=O [Compound 111]	H (H shows more than 50% of control values)	H (H shows more than 50% of control values)	H (H shows more than 50% of control values)	H (H shows more than 50% of control values)
